According to publication PMC4336329 (PLoS ONE, 2015):
The campaign covered roughly 310,000 compounds. About 2,200 (0.71%) showed an effect of 50% or more. Effects have a minus sign here. Some of the results follow.

These compounds were tested against human ether-à-go-go-related gene (hERG) potassium channel (human, UniProt Q12809) (assay: primary screen, population patch clamp on CHO cells stably expressing hERG).
Chain of human ether-à-go-go-related gene (hERG) potassium channel (Q12809 whole entry, looked up): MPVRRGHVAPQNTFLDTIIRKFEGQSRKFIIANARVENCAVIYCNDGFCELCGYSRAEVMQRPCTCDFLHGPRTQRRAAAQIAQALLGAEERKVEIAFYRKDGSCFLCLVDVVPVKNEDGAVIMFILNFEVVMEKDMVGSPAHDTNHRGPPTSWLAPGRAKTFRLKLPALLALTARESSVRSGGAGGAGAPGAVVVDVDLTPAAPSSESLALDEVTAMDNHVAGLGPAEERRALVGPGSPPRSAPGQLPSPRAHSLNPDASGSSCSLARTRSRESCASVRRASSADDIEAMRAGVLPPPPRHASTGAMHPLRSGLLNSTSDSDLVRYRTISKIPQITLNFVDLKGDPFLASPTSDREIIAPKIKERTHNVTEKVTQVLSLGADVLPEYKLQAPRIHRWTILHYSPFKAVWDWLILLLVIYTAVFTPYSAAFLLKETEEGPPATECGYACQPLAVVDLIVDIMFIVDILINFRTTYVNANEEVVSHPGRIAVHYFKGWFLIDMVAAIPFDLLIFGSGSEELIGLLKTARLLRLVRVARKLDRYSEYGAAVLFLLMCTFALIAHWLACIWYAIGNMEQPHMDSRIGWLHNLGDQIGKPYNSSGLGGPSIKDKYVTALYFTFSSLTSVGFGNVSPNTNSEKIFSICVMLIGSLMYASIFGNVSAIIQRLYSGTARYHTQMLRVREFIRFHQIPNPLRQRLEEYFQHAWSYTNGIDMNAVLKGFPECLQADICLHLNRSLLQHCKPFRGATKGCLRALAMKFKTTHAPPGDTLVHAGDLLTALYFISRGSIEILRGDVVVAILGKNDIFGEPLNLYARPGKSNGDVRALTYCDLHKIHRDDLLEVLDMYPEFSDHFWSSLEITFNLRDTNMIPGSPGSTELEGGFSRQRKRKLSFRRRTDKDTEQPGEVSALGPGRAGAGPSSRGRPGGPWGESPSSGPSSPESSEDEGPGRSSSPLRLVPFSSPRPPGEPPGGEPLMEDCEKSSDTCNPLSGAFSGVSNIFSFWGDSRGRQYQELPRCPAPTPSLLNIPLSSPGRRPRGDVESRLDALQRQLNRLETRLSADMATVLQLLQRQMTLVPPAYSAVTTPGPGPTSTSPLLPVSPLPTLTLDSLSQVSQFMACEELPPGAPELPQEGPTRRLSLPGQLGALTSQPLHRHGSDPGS

Row | SMILES | hERG current change (%, negative = inhibition) at 1uM
1 | CC(C)CN(CC(C)C)C1=N/C(=C\c2ccco2)C(=O)N1c1ccccc1 | 8.79%
2 | Cc1cc[n+](CC(=O)c2ccc3c(c2)OCCO3)cc1.[Br-] | -5.5%
3 | COCc1nnc(NS(=O)(=O)c2ccc(F)cc2)s1 | 6.71%
4 | Brc1ccc(NCc2nnc3n2CCCCC3)cc1 | 1.22%
5 | Cc1nnc(NC(=O)c2cccc(S(=O)(=O)N3CCN(C)CC3)c2)s1 | 9.74%
6 | CS(=O)(=O)c1ccc(Cl)c(S(=O)(=O)NCc2ccccc2)c1 | 16.7%
7 | Cc1ccc(CSc2nnc(NC(=O)C3=COCCO3)s2)cc1 | 8.12%
8 | CC(=O)NNc1nc2ccccc2s1 | 5.36%
9 | COc1ccc(NC(=O)CCCNC(=O)Cn2cnc3sc4c(c3c2=O)CCCC4)cc1OC | 19.9%
10 | CCOc1ccc2nc(N=NC3=C(O)CC(C)(C)CC3=O)sc2c1 | 18.3%
11 | CC(C)Oc1ccc(C(=O)NCCCNC(=O)c2cccnc2)cc1 | 10.5%
12 | COc1cc(C=O)ccc1OCC(=O)N1CCCC1 | 7.18%
13 | COc1ccc(NC(=O)c2nc[nH]c2C(=O)NCc2ccccc2)cc1 | 12%
14 | Cc1ccc(NC(=O)COC(=O)CNC(=O)c2ccco2)cc1 | 6.59%
15 | Cc1ccc2[nH]c(O)c(N=NC(=O)CCc3ccccc3)c2c1Br | 8.03%
16 | Cc1[nH]c2ccccc2c1C(O)CN1CCN(c2cccc(C(F)(F)F)c2)CC1 (centres unmarked) | 3.76%
17 | Cc1cccc(Nc2c(-c3ccc(O)cc3)nc3ncccn23)c1 | 13.5%
18 | COc1cccc(NC(=O)CN(C)C(=O)c2cc(C3CC3)nn2-c2ccccc2)c1 | 8.88%
19 | O=C(CSc1nc2ccccc2c(=O)n1Cc1ccco1)c1ccc(F)cc1 | 12.6%
20 | C=CCNc1nc(C(=O)OCC(=O)c2ccccc2)cs1 | 7.88%

Row | SMILES | hERG current change (%, negative = inhibition) at 1uM
21 | COCCCNc1nc2cc(OC)c(OC)cc2c2nc(-c3ccccc3)nn12 | 18.4%
22 | Cc1ccc(-c2csc3ncn(CC(=O)N4CCOCC4)c(=O)c23)cc1 | 4.32%
23 | O=C(c1ccccc1)N1CCc2ccccc21 | 5.7%
24 | Cc1sc2nc(C(C)C)nc(SCC(=O)NC3CC3)c2c1C | 14.5%
25 | CC(C)Nc1nc(NC(C)C)nc(N(C)N)n1 | 3.03%
26 | COc1cc(CNc2ccc(N3CCOCC3)c(C(=O)O)c2)ccc1OCC(N)=O | -5.34%
27 | CC[C@@]1(O)C(=O)OCc2c1cc1n(c2=O)Cc2cc3c(N)cccc3nc2-1 | 2.74%
28 | CCOC(=O)c1c(NC(NC(=O)CF)C(Cl)(Cl)Cl)sc2c1CCCC2 (centres unmarked) | 1.03%
29 | O=C1COc2ccc(C(=O)COC(=O)c3ccc(Cl)cc3[N+](=O)[O-])cc2N1 | -11.6%
30 | COc1ccc(CN2CCN(C(=O)c3cccs3)CC2)cc1Br | -10.9%
31 | COc1ccc(NC(=O)CCCc2ccc(OC)c(C)c2)cc1 | 2.91%
32 | CCc1nnc(NC(=O)CSc2nncc(=O)n2N)s1 | 16.4%
33 | CC1CCCCN1C(=O)CSc1nnc(CSc2ncccn2)n1C (centres unmarked) | 17.1%
34 | CN(C)NC(=S)NC1CC2CCC1C2 (centres unmarked) | 4.86%
35 | O=C(NCC(F)(F)F)Nc1ccccn1 | 0.0705%
36 | C/C(Cl)=C\COc1cc(C)nc2c(Br)cccc12 | 13%
37 | COc1ccccc1NC(=O)CSc1nnc(CCC(=O)Nc2ccccc2F)n1C | 17.4%
38 | Cl.O=C(CNCCO)NC12CC3CC(CC(C3)C1)C2 | 12.8%
39 | CCC(C)(C)NC(=O)CN(C(=O)c1snc(C(N)=O)c1N)c1ccc2nc(C)sc2c1 | 12%
40 | COc1ccc(CCn2c(NCc3ccco3)nc3c2c(=O)[nH]c(=O)n3C)cc1 | 16.6%

Row | SMILES | hERG current change (%, negative = inhibition) at 1uM
41 | CC(C(=O)OCC(=O)Nc1cccc(S(=O)(=O)N(C)C)c1)N1C(=O)c2ccccc2C1=O (centres unmarked) | 7.02%
42 | COCC(=O)N(Cc1nc2sc(C)c(C)c2c(=O)[nH]1)C1CCCCC1 | 4.45%
43 | Cc1ccc(S(=O)(=O)NCC(=O)OCC(=O)N2CCN(C(=O)c3ccco3)CC2)cc1C | -5.38%
44 | CC(OC(=O)CCc1c[nH]c2ccccc12)C(=O)c1ccccc1 (centres unmarked) | 6.37%
45 | CCCOc1cccc(C(=O)N/N=C/c2ccoc2)c1 | 9.43%
46 | COc1ccc(OC)c(/C=N/NC(=O)c2[nH]ncc2Br)c1 | 7.79%
47 | O=S(=O)(c1ccccc1Cl)N1CCC(O)(c2ccc3c(c2)OCO3)CC1 | 4.94%
48 | O=C(N/N=C/c1ccncc1)c1cccc(S(=O)(=O)Nc2ccc(Cl)cc2)c1 | 7.53%
49 | Cc1ccc(OCCNC(=O)CCc2nc3sc4c(c3c(=O)[nH]2)CCCC4)cc1 | 14.6%
50 | C/C=C/c1ccc(OCC(=O)Nc2ccc(OC)c(OC)c2)c(OC)c1 | 9.62%
51 | Fc1ccc(CSc2nnc(-c3ccncc3)o2)cc1 | 16.5%
52 | CC(=O)c1ccc2oc3ccccc3c(=O)c2c1 | 8.94%
53 | O=C(O)c1ccccc1C(=O)Nc1cc(-c2ccccc2)[nH]n1 | 11.1%
54 | Cc1ccc(-c2nc(CSCC(=O)Nc3cc(C)on3)c(C)o2)cc1 | 16%
55 | CN(C)S(=O)(=O)N(CC(=O)N1CCN(c2ccccc2F)CC1)c1ccccc1 | 8.68%
56 | CC(=S)/C=C1\Sc2ccccc2N1C | 5.22%
57 | COC(=O)Cn1nc(-c2ccc(C)cc2)c2ccccc2c1=O | -0.0939%
58 | COc1ccc(CCNC(=O)CCc2cn(C)c3ccccc23)c(OC)c1OC | 4.67%
59 | COc1ccc(N(CC(=O)NCCSC2CCCCC2)S(=O)(=O)c2ccc(C)cc2)cc1 | 11.6%
